The values that follow come from PubChem BioAssay AID1745853 (National Center for Advancing Translational Sciences (NCATS), 2022).

Several values for one entry are separate records, joined by “and”; a condition that tells them apart may be missing. Identical values can stand only once. Some of the results follow. The main result of the screen is listed elsewhere. These columns were measured beside it and carry no call.

Test in all cases: Primary Screen for Target Class Profiling of Small Molecule Inhibitors of Methyltransferases
Experiment [1] concerns the target Glycine N-methyltransferase (Homo sapiens) (UniProt Q14749). The conditions noted are these: purified enzyme, MTase-Glo SAH luminescence; measured here: GNMT inhibition; at 40 µM; stronger effect = lower value. In short, it runs like this: (§1)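 Each enzyme was assayed with SAM and its substrate. SAH formation detected by MTase-Glo luminescence; single-point 40 uM screen[…].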

In experiment [2] the target is Guanidinoacetate N-methyltransferase (Homo sapiens) (UniProt Q14353). The conditions noted are these: purified enzyme, MTase-Glo SAH luminescence; measured here: GAMT inhibition; at 40 µM; stronger effect = lower value. In short, it runs like this: as §1
Experiment [3] addresses Histamine N-methyltransferase (Homo sapiens) (UniProt P50135). The conditions noted are these: purified enzyme, MTase-Glo SAH luminescence; measured here: HNMT inhibition; at 40 µM; stronger effect = lower value. In short, it runs like this:
as §1

For experiment [4], the target named is Nicotinamide N-methyltransferase (Homo sapiens) (UniProt P40261). The conditions noted are these: purified enzyme, MTase-Glo SAH luminescence; measured here: NNMT inhibition; at 40 µM; stronger effect = lower value. In outline:
as §1

Experiment [5] concerns the target Phenylethanolamine N-methyltransferase (Homo sapiens) (UniProt P11086). The conditions noted are these: purified enzyme, MTase-Glo SAH luminescence; measured here: PNMT inhibition; at 40 µM; stronger effect = lower value. In outline: as §1
% is scaled to controls: 0 for no effect and ±100 for the full control effect.

Turning to `CC(=O)N1CCC(N2CC[C@H](c3nc4ccccc4s3)C2)CC1`, the activity change, negative = inhibition in experiment [1] was -6.16%; in experiment [2], -7.66%; in experiment [3] it was -2.49%; in experiment [4], -9.44%; in experiment [5], -5.83%.

On to `COC(=O)C1=CO[C@@H](O[C@@H]2O[C@H](CO)[C@@H](O)[C@H](O)[C@H]2O)C2C1C(=O)C[C@H]2C` (stereo partly drawn), for which the activity change, negative = inhibition in experiment [1] is 2.68%; in experiment [2], 1.02%; in experiment [3], 8.43%; in experiment [4] it was -11.9%; in experiment [5], 7.09%.

As to `CCC(C)NC(=O)c1ccc2c(=O)n(CC(C)C)c3nn(Cc4ccccc4)c(=O)n3c2c1` (stereo not drawn), the activity change, negative = inhibition in experiment [1] was -6.87%; in experiment [2], 3.16%; in experiment [3], 3.45%; in experiment [4], -5.53%; in experiment [5] it was 2.58%.

`c1ccc(-c2n[nH]c3c2oc2ccccc23)cc1`: the activity change, negative = inhibition in experiment [2] was 4.78%; in experiment [4], -14.4%; in experiment [5] it was 7.31%.

Take `CCOc1ccc(N2C(=O)c3cc(-c4ccco4)nn3CC2(C)C(=O)NC2CCCCCC2)cc1` (stereo not drawn): the activity change, negative = inhibition in experiment [1] is -1.28%; in experiment [2] it was 0%; in experiment [3], 2.6%; in experiment [4], 3.72%; in experiment [5], -3.97%.

For the compound `OCC1(CC2CC2)CCCN(Cc2ccc(C(F)(F)F)nc2)C1` (stereo not drawn), the activity change, negative = inhibition in experiment [1] was -1.61%; in experiment [2] it was 0.293%; in experiment [3], 0.611%; in experiment [4], -6.98%; in experiment [5], -1.18%.

`Cn1cc(-c2ccc(S(=O)(=O)n3ccc(/C=C/C(=O)Nc4ccccc4N)c3)cc2)cn1`: the activity change, negative = inhibition in experiment [1] was -6.17%; in experiment [2] it was -18.9%; in experiment [3], -3.22%; in experiment [4], -44.2%; in experiment [5], -18.9%.

As for `O=C(COc1ccccc1)N1CCC(OCc2ccccc2)C1` (stereo not drawn), the activity change, negative = inhibition is -5.75% in experiment [1]; -8.63% in experiment [2]; -6.13% in experiment [3]; -5.89% in experiment [4]; -7.28% in experiment [5].

`CC(C)Cn1c(=O)c2ccccc2n2c(CCC(=O)NCCCN3CCN(c4ccccc4F)CC3)nnc12`: the activity change, negative = inhibition in experiment [1] was -1.9%; in experiment [2], 0.633%; in experiment [3] it was 1.86%; in experiment [4], 1.17%; in experiment [5] it was 1.15%.

As to `O=C(NCCc1ccc(Cl)cc1)c1ccc2c(=O)[nH]c3c(C(=O)NCC4CCCO4)sc(=S)n3c2c1` (stereo not drawn), the activity change, negative = inhibition in experiment [1] is -47.6%; in experiment [2], 0%; in experiment [3], -0.773%; in experiment [4], -29.7%; in experiment [5], -25.2%.

For `CCc1ccc(N2C(=O)c3c(C(=O)OC)ncn3CC2(C)C(=O)NC2CCCC2)cc1` (stereo not drawn), the activity change, negative = inhibition was 0.806% in experiment [1]; -0.198% in experiment [2]; -1.26% in experiment [3]; -3.81% in experiment [4]; -2.63% in experiment [5].

Take `CO[C@H]1/C=C\O[C@@]2(C)Oc3c(C)c(O)c4c(O)c(c5c(nc6cc(C)ccn65)c4c3C2=O)NC(=O)/C(C)=C\C=C/[C@H](C)[C@H](O)[C@@H](C)[C@@H](O)[C@@H](C)[C@H](OC(C)=O)[C@@H]1C`: the activity change, negative = inhibition in experiment [1] was -0.41%; in experiment [2], 18.2%; in experiment [3] it was 10.4%; in experiment [4] it was -2.62%; in experiment [5] it was 7.93%.

For the compound `O=C(Cc1ccc(Cl)cc1)N1CCc2c(nc3cc[nH]n3c2=O)C1`, the activity change, negative = inhibition in experiment [1] was -13.5%; in experiment [2] it was -2.3%; in experiment [3], -4.84%; in experiment [4] it was -29.1%; in experiment [5] it was -3.6%.

`C=C(C)C(=O)O[C@H]1C[C@@](C)(O)C(=O)CC(O)/C(C)=C\[C@H]2OC(=O)C(=C)[C@H]12` (stereo partly drawn): the activity change, negative = inhibition was 0% in experiment [1]; -2.77% in experiment [2]; 5.26% in experiment [3]; -12.2% in experiment [4]; 5.5% in experiment [5].

As for `O=C(c1ccc(-c2cccc(O)c2)nc1)N1CCCN(c2ncccn2)CC1`, the activity change, negative = inhibition in experiment [1] is -4.82%; in experiment [2] it was -4.69%; in experiment [3] it was -6.09%; in experiment [4], -8.7%; in experiment [5], -5.82%.

On to `Cc1ccccc1CNC(=O)c1cc2n(n1)CC(C)(C(=O)NC1CCCC1)N(C)C2=O` (stereo not drawn), for which the activity change, negative = inhibition was -0.281% in experiment [1]; 3.83% in experiment [2]; 0.477% in experiment [3]; 4.51% in experiment [4]; 0.32% in experiment [5].

In the case of `CC/C(=C(\c1ccccc1)c1ccc(OCCN(C)C)cc1)c1ccccc1`, the activity change, negative = inhibition is 8.65% and 7.47% in experiment [1]; 10.4% and 12.8% in experiment [2]; 3.08% and 10.7% in experiment [3]; -12.4% and -6.51% in experiment [4]; -2.01% and 3.17% in experiment [5].

`COCCNc1cc(-c2noc([C@@H]3CCCN3CC(C)C)n2)ccn1`: the activity change, negative = inhibition in experiment [1] is -50.6%; in experiment [2] it was -42.7%; in experiment [3] it was -12.6%; in experiment [4], -38.7%; in experiment [5] it was -23.5%.

`CN1CCN(c2cc(=O)c3ccnc(Nc4ccc(F)c(Cl)c4)c3o2)CC1`: the activity change, negative = inhibition is -18.4% in experiment [1]; -9.73% in experiment [2]; -30.7% in experiment [3]; -33.8% in experiment [4]; -7.07% in experiment [5].

In the case of `COc1cccc(CNC(=O)Cn2nc3n(Cc4ccc(F)cc4)c(=O)c4ccccc4n3c2=O)c1`, the activity change, negative = inhibition in experiment [1] was 1.14%; in experiment [2], 4.99%; in experiment [3], 5.31%; in experiment [4] it was -3.94%; in experiment [5] it was 0.328%.

With `C=CCn1c(=O)c2ccc(C(=O)NC(C)CC)cc2n2c(=O)n(CC(=O)Nc3ccccc3)nc12` (stereo not drawn), the activity change, negative = inhibition in experiment [1] was -1.01%; in experiment [2] it was 1.68%; in experiment [3], -2.48%; in experiment [4] it was -1.37%; in experiment [5], -0.156%.

For the compound `O=C(NCCCNC(=O)c1ccc[nH]c1=O)c1cc(-c2ccccc2)on1`, the activity change, negative = inhibition in experiment [1] is -1.86%; in experiment [2] it was -4.42%; in experiment [3], 10.8%; in experiment [4], -14.6%; in experiment [5], -0.441%.

`CCCN1CCCC2(CCN(C(=O)c3ccc4nc(C)sc4c3)C2)C1=O` (stereo not drawn): the activity change, negative = inhibition in experiment [1] is -1.66%; in experiment [2], -1.18%; in experiment [3], 0.108%; in experiment [4], -7.05%; in experiment [5] it was 11.6%.

Regarding `CCOC(=O)CNC(=O)C1(C)Cn2nc(C(=O)OCC)cc2C(=O)N1c1ccc(Cl)cc1` (stereo not drawn), the activity change, negative = inhibition was -5.55% in experiment [1]; -0.59% in experiment [2]; -0.417% in experiment [3]; -7.76% in experiment [4]; -3.69% in experiment [5].

On to `COc1ccc(CCNC(=O)C23CCC=C2N(C2CCCC2)C(=O)CC3)cc1OC` (stereo not drawn), for which the activity change, negative = inhibition in experiment [1] was -1.64%; in experiment [2] it was -0.33%; in experiment [3], 1.65%; in experiment [4], -6.09%; in experiment [5], -13.2%.

Take `Cc1ccccc1CNC(=O)c1cc2n(n1)CC(C)(C(=O)NC1CCCCCC1)N(C)C2=O` (stereo not drawn): the activity change, negative = inhibition in experiment [1] is 2.46%; in experiment [2], 0%; in experiment [3], -1.28%; in experiment [4] it was 0.456%; in experiment [5], -3.8%.

In the case of `COC(=O)c1cc2n(n1)CC(C)(C(=O)NC1CCC(C)CC1)N(Cc1ccccc1F)C2=O` (stereo not drawn), the activity change, negative = inhibition was 4.18% in experiment [1]; 0.589% in experiment [2]; 9.89% in experiment [3]; -0.196% in experiment [4]; 2.59% in experiment [5].

Take `Cc1cccc(NC(=O)N2Cc3c(sc4c3CCCC4)-n3cccc3C2c2cccc(F)c2)c1` (stereo not drawn): the activity change, negative = inhibition in experiment [1] came out at 2.65%; in experiment [2] it was 1.19%; in experiment [3], 2.66%; in experiment [4] it was 1.52%; in experiment [5] it was 4.62%.

For `Cc1ccncc1-c1c(C)nn2c1N(Cc1ccc(C(=O)O)cc1)CCC2`, the activity change, negative = inhibition is -5.08% in experiment [1]; -3.68% in experiment [2]; -1.73% in experiment [3]; -6.96% in experiment [4]; -6.91% in experiment [5].

On to `CCN(CCCOc1ccc2c(Nc3cc(CC(=O)Nc4cccc(F)c4)[nH]n3)ncnc2c1)CCOP(=O)(O)O`, for which the activity change, negative = inhibition was -1.65% in experiment [1]; -3.2% in experiment [2]; 3.74% in experiment [3]; -16.8% in experiment [4]; -1.55% in experiment [5].
